A lower IC50 marks a more sensitive line; a fit beyond the top or the lowest dose is shown as a bound at that dose. The AUC spans the tested range (256-fold, ending at the top dose) of the same fit: 1 means no effect, lower means more sensitive. An inferred top dose was calculated from the reported fits.
compound: CCOc1cc2ncc(C#N)c(Nc3ccc(F)c(Cl)c3)c2cc1NC(=O)/C=C/CN(C)C [EKB-569]; test: Viability of human cancer cell lines after 72 h of drug (GDSC screen); conditions: top dose inferred
Description: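 Human cancer cell lines in 384-well plates, medium with 10% serum, drug for 72 h over a 256-fold dose range (nine 2-fold or five 4-fold steps up to the top dose). Adherent lines were fixed and stained with the nucleic acid dye Syto60, suspension lines read with resazurin; signal relative to control wells, capped at 0 and 100%. One two-parameter sigmoid per drug and line, fitted in a mixed model over all curves with the slope shared within a line.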

Cell Line	AUC	IC50 [nM]
DU-145 (prostate, adherent, top dose 2.5 µM)	0.973	> 2500
no-10 (glioma, adherent, top dose 2.5 µM)	0.947	> 2500
IST-SL1 (small cell lung carcinoma, semi-adherent, top dose 2.5 µM)	0.873	> 2500
NCI-H1417 (small cell lung carcinoma, suspension, top dose 2.5 µM)	0.894	> 2500
NCI-H747 (large intestine, adherent, top dose 20 µM)	0.234	174
SNU-C2B (large intestine, adherent, top dose 20 µM)	0.613	2830
CTB-1 (B-cell lymphoma, suspension, top dose 2.5 µM)	0.605	337
SNU-175 (large intestine, suspension, top dose 2.5 µM)	0.837	1530
SCH (stomach, adherent, top dose 2.5 µM)	0.983	> 2500
HT55 (large intestine, adherent, top dose 2.5 µM)	0.99	> 2500
SW780 (bladder, adherent, top dose 2.5 µM)	0.985	> 2500
MN-60 (B-cell leukaemia, suspension, top dose 2.5 µM)	0.944	> 2500
Hs746T (stomach, adherent, top dose 2.5 µM)	0.773	1330
HCC1569 (breast, adherent, top dose 2.5 µM)	0.843	> 2500
BHT-101 (thyroid, adherent, top dose 2.5 µM)	0.981	> 2500
DOV13 (ovary, adherent, top dose 2.5 µM)	0.967	> 2500
NCI-H526 (small cell lung carcinoma, suspension, top dose 2.5 µM)	0.924	> 2500
P12-ICHIKAWA (T-cell lymphoblastic leukaemia, suspension, top dose 20 µM)	0.45	940
RD (rhabdomyosarcoma, adherent, top dose 2.5 µM)	0.968	> 2500
Hs-445 (Hodgkin lymphoma, suspension, top dose 2.5 µM)	0.71	579

Cell Line	AUC	IC50 [nM]
NCI-H1944 (lung adenocarcinoma, adherent, top dose 2.5 µM)	0.823	1600
SNU-1040 (large intestine, adherent, top dose 2.5 µM)	0.636	425
CS1 (bone, adherent, top dose 2.5 µM)	0.773	1090
PC-3 [JPC-3] (lung adenocarcinoma, adherent, top dose 2.5 µM)	0.43	94.7
MV-4-11 (leukaemia, suspension, top dose 2.5 µM)	0.47	131
HDLM-2 (Hodgkin lymphoma, suspension, top dose 2.5 µM)	0.987	> 2500
EW-3 (Ewing sarcoma, adherent, top dose 2.5 µM)	0.887	> 2500
IGR-1 (melanoma, adherent, top dose 2.5 µM)	0.956	> 2500
ESO26 (oesophagus, adherent, top dose 2.5 µM)	0.437	106
CHSA8926 (chondrosarcoma, adherent, top dose 2.5 µM)	0.966	> 2500
IPC-298 (melanoma, adherent, top dose 2.5 µM)	0.909	> 2500
SK-UT-1 (soft tissue, adherent, top dose 2.5 µM)	0.976	> 2500
RERF-LC-Sq1 (lung squamous cell carcinoma, adherent, top dose 2.5 µM)	0.92	> 2500
DND-41 (T-cell leukaemia, suspension, top dose 2.5 µM)	0.904	> 2500
CL-11 (large intestine, adherent, top dose 2.5 µM)	0.987	> 2500
NB(TU)1-10 (neuroblastoma, adherent, top dose 2.5 µM)	0.987	> 2500
D-283MED (medulloblastoma, adherent, top dose 2.5 µM)	0.989	> 2500
NCI-H1792 (lung adenocarcinoma, adherent, top dose 2.5 µM)	0.903	> 2500
ES7 (Ewing sarcoma, adherent, top dose 2.5 µM)	0.629	358
NCI-H2135 (non-small cell lung carcinoma, adherent, top dose 2.5 µM)	0.94	> 2500

Cell Line	AUC	IC50 [nM]
SW756 (cervix, adherent, top dose 2.5 µM)	0.963	> 2500
TC-71 (Ewing sarcoma, adherent, top dose 2.5 µM)	0.958	> 2500
SNG-M (endometrium, adherent, top dose 2.5 µM)	0.584	263
SK-N-DZ (neuroblastoma, adherent, top dose 2.5 µM)	0.983	> 2500
KYM-1 (rhabdomyosarcoma, adherent, top dose 2.5 µM)	0.991	> 2500
NCI-H1437 (lung adenocarcinoma, adherent, top dose 2.5 µM)	0.946	> 2500
JHH-6 (liver, adherent, top dose 2.5 µM)	0.983	> 2500
NCI-H650 (lung adenocarcinoma, adherent, top dose 2.5 µM)	0.905	> 2500
Hs766T (pancreas, adherent, top dose 2.5 µM)	0.981	> 2500
PA-TU-8988T (pancreas, adherent, top dose 2.5 µM)	0.95	> 2500
HN (head and neck, adherent, top dose 2.5 µM)	0.977	> 2500
LNZTA3WT4 (glioma, adherent, top dose 2.5 µM)	0.981	> 2500
HH (T-cell leukaemia, suspension, top dose 2.5 µM)	0.826	2250
KYSE-150 (oesophagus, adherent, top dose 2.5 µM)	0.913	> 2500
HT-115 (large intestine, adherent, top dose 2.5 µM)	0.971	> 2500
RCM-1 (large intestine, adherent, top dose 2.5 µM)	0.949	> 2500
RPMI-8402 (T-cell lymphoblastic leukaemia, suspension, top dose 20 µM)	0.15	134
NCI-H345 (small cell lung carcinoma, suspension, top dose 2.5 µM)	0.99	> 2500
YH-13 (glioma, adherent, top dose 2.5 µM)	0.937	> 2500

Reference: the supplement of paper PMC4967469
